Results on three molecules are retold here after article PMC4335047, “Interaction between the tRNA-Binding and C-Terminal Domains of Yeast Gcn2 Regulates Kinase Activity In Vivo” (PLoS Genetics, 2015).

Results are given in words; binding and its absence hold for the method and conditions named. For some assays here: In cells and extracts the contact can be indirect. Some entries that bind do so weakly or less than the wild type. For some assays here: Sequences can lack the tags named with a protein.

Experiment [1] deals with T1, LexA-CTD (Gcn2 residues 1498–1659) (S. cerevisiae) (UniProt P15442).
T1 sequence: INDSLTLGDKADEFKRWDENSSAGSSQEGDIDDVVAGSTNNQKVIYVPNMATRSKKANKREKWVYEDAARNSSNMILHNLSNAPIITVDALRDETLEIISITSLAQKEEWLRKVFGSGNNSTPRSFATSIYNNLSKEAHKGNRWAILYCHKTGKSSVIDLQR
Nature of the experiment: two-hybrid; lexA-CTD(1498–1659) and B42-KD(720–999) in yeast with lexAop-lacZ reporter; β-galactosidase activity; cells under starvation (sulfometuron methyl) or nonstarvation conditions.

Experiment [2] has as its target T2, GST-CTD (Gcn2 residues 1498–1659) (S. cerevisiae, UniProt P15442 1498-1659).
T2 construct: Gcn2 of S. cerevisiae, C-terminal domain (CTD), residues 1498-1659; a pGEX vector with the tac promoter points to E. coli; also called GST-GCN2(1498–1659); source: purified GST fusion (P tac, pGEX-5x-1); not shown: GST, N-terminal, kept
T2 sequence (looked up): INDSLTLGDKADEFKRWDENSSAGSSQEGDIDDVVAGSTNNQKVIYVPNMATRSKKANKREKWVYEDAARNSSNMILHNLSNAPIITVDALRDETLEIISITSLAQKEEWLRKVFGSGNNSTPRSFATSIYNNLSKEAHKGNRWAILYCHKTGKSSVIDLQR
Nature of the experiment: pull-down; purified GST fusions (5 μg) immobilised on glutathione-Sepharose 4B beads; in vitro translated [35S]-HisRS(970–1497), partially purified by ammonium sulfate precipitation; buffer A, 4°C, 2 h; without or with increasing tRNA^Phe or a model mRNA; fluorography; only the target purified.

Experiment [3] deals with T3, GST-HisRS (Gcn2 residues 970–1497), wild type (S. cerevisiae) (UniProt P15442).
T3 sequence: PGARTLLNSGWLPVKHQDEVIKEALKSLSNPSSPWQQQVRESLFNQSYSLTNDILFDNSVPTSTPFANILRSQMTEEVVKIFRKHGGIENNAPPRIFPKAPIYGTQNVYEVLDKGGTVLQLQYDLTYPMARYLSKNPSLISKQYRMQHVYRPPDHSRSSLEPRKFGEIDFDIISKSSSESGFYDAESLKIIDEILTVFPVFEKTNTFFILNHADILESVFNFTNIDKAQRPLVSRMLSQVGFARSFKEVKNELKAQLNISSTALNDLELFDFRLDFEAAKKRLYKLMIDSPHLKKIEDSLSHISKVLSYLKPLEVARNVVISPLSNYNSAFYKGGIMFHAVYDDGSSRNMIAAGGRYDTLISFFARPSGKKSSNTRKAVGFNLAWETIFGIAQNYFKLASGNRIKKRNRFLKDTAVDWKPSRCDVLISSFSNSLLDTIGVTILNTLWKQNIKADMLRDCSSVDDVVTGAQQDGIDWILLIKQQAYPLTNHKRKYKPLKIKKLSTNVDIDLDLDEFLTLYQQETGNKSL
The description is as above.

In experiment [4] the target is T4, GST-KD (Gcn2 residues 568–998) (S. cerevisiae, UniProt P15442 568-998).
T4 construct: Gcn2 of S. cerevisiae, kinase domain (KD), residues 568-998; a pGEX vector with the tac promoter points to E. coli; also called GST-GCN2(568–998); source: purified GST fusion (P tac, pGEX-5x-1); not shown: GST, N-terminal, kept
The description is as above.

For experiment [5], the target named is T5, GST-HisRS (Gcn2 residues 970–1497) D1327K/Y1092C/T1328S/A1353V (S. cerevisiae) (UniProt P15442).
T5 sequence: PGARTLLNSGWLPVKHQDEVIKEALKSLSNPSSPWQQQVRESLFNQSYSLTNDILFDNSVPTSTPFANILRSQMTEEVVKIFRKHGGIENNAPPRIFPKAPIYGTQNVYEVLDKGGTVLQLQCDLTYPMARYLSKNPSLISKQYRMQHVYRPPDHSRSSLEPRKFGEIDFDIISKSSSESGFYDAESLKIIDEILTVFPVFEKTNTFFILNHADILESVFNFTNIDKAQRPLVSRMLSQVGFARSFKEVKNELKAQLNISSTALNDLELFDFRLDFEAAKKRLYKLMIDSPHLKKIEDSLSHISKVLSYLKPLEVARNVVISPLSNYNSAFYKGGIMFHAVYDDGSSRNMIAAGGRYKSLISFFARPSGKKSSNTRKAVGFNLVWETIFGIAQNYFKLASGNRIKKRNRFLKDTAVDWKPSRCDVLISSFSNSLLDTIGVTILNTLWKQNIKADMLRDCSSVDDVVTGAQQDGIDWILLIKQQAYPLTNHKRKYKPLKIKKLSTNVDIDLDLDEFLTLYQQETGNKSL
Nature of the experiment: pull-down; purified GST-HisRS fusions (5 μg) immobilised on glutathione-Sepharose 4B beads; LexA-CTD in 500 μg of micrococcal nuclease-treated yeast whole-cell extract; buffer A (20mM Tris/HCl pH7.5, 100mM NaCl, 0.2mM EDTA, 1mM DTT), 4°C, 2 h; immunoblot with anti-LexA; only the target purified.

Experiment [6] has as its target T6, GST-HisRS (Gcn2 residues 970–1497) D1327K (S. cerevisiae) (UniProt P15442).
T6 sequence: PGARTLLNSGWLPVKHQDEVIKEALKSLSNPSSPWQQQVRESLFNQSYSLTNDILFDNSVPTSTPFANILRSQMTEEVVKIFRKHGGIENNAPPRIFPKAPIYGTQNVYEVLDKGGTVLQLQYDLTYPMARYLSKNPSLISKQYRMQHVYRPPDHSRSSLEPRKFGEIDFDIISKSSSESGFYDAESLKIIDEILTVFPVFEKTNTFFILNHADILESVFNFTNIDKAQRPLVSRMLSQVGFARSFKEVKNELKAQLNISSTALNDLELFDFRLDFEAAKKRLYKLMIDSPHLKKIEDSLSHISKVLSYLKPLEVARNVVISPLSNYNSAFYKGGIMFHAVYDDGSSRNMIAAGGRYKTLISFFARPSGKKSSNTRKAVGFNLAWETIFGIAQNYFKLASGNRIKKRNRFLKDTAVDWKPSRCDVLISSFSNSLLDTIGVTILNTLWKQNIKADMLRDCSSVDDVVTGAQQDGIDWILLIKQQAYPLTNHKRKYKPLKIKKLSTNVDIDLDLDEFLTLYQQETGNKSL
Described as above.

For experiment [7], the target named is T7, GST-HisRS (Gcn2 residues 970–1497) Y1092C/T1328S/A1353V (S. cerevisiae) (UniProt P15442).
T7 sequence: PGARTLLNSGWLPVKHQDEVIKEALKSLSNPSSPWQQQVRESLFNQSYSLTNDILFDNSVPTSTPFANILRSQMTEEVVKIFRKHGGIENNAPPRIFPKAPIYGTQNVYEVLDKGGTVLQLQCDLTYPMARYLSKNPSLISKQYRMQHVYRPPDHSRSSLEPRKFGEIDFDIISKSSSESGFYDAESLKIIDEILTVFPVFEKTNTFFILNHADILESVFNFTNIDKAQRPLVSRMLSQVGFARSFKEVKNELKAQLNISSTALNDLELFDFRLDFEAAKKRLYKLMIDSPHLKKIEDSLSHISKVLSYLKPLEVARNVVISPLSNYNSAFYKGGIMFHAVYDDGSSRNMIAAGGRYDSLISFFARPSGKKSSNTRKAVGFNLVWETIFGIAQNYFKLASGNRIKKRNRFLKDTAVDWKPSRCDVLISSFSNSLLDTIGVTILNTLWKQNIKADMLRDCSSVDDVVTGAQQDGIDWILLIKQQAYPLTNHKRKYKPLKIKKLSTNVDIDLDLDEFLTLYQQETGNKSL
The description is as above.

In experiment [8] the target is T3, GST-HisRS (Gcn2 residues 970–1497), wild type (S. cerevisiae). The experiment is described as above.

In the case of “B42-KD (Gcn2 residues 720–999) (from UniProt P15442 720-999) (domain or fragment)”, in experiment [1], the binding entry was “binds”.

B1: [35S]-HisRS(970–1497) segment of Gcn2 (domain or fragment, S. cerevisiae, UniProt P15442 970-1497, looked up)
chain: PGARTLLNSGWLPVKHQDEVIKEALKSLSNPSSPWQQQVRESLFNQSYSLTNDILFDNSVPTSTPFANILRSQMTEEVVKIFRKHGGIENNAPPRIFPKAPIYGTQNVYEVLDKGGTVLQLQYDLTYPMARYLSKNPSLISKQYRMQHVYRPPDHSRSSLEPRKFGEIDFDIISKSSSESGFYDAESLKIIDEILTVFPVFEKTNTFFILNHADILESVFNFTNIDKAQRPLVSRMLSQVGFARSFKEVKNELKAQLNISSTALNDLELFDFRLDFEAAKKRLYKLMIDSPHLKKIEDSLSHISKVLSYLKPLEVARNVVISPLSNYNSAFYKGGIMFHAVYDDGSSRNMIAAGGRYDTLISFFARPSGKKSSNTRKAVGFNLAWETIFGIAQNYFKLASGNRIKKRNRFLKDTAVDWKPSRCDVLISSFSNSLLDTIGVTILNTLWKQNIKADMLRDCSSVDDVVTGAQQDGIDWILLIKQQAYPLTNHKRKYKPLKIKKLSTNVDIDLDLDEFLTLYQQETGNKSL
modifications: [35S]-methionine labeled
notes: Gcn2 of S. cerevisiae, HisRS-related domain, residues 970-1497; P T7-GCN2 (970–1497) in pGEM-3Z; also called [^35S]-methionine labeled HisRS fragment; [^35S]-HisRS domain fragments; source: in vitro translated (TNT T7 Coupled Reticulocyte Lysate System), partially purified by ammonium sulfate precipitation
On to B1, for which the binding entry in experiment [2], in experiment [3] and in experiment [4] was “binds” throughout.

B2: LexA-CTD (Gcn2 residues 1498–1659) (domain or fragment, UniProt P15442 1498-1659)
chain: INDSLTLGDKADEFKRWDENSSAGSSQEGDIDDVVAGSTNNQKVIYVPNMATRSKKANKREKWVYEDAARNSSNMILHNLSNAPIITVDALRDETLEIISITSLAQKEEWLRKVFGSGNNSTPRSFATSIYNNLSKEAHKGNRWAILYCHKTGKSSVIDLQR
Take B2: the binding result in experiment [5] is on record as “binds”; in experiment [6], “binds”; in experiment [7] it was “binds weakly”; in experiment [8], “binds weakly”.
